The campaign covered roughly 52,000 compounds. About 4,300 (8.3%) were called active. No stated cut-off is given here; in the data, active means survival mostly below about 52% (no sharp cut-off); inactive means mostly above about 56%. The list shows a part of the results.
These compounds were tested on DeltatarO mutant (assay: S. aureus survival, RN4220 and DeltatarO strains – OD600, teichoic acid synthesis inhibitors, primary screen (AID 463173)). Conditions: S. aureus RN4220 wild type/DeltatarO growth, OD600, 18 h, active compounds read low, screened at 18.75 µg/mL (by protocol).

Compound | survival
Cc1cccc(NS(=O)(=O)c2nnc(NC(=O)C3CCCCC3)s2)c1 | active: 34%
COc1cc2[nH]c(=O)n(Cc3ccc(C(=O)N4CCN(c5cccc(C)c5C)CC4)cc3)c(=O)c2cc1OC | inactive: 138%
CCN(c1ccccc1)C1SC(=O)N(c2ccccc2)C1=O (stereo unspecified) | inactive: 70%
COc1ccc(CNC(=O)c2cc(Nc3ccc(OC)cc3OC)nc3ccccc23)cc1 | inactive: 80%
Cc1ccc(-n2nc(CO)c(C(=O)NCCO)n2)cc1 | inactive: 82%
COc1ccc(CCNC(=O)Cn2nnc(-c3cccc(C(F)(F)F)c3)n2)cc1OC | inactive: 95%
CC1CN(C)C(C)c2c1oc1ccc(N)cc21 (stereo unspecified) | inactive: 98%
COc1ccc(CNC(=O)C(=O)NCC(c2cccnc2)N2CCN(c3ccccc3F)CC2)cc1 (stereo unspecified) | inactive: 70%
COc1cc(C2C(=O)N(C3CCC(C)CC3)CC(=O)N2CCc2ccc(Cl)cc2)ccc1OC(C)C (stereo unspecified) | inactive: 84%
Cc1ccc(NC(=O)CN(C)S(=O)(=O)c2cccc3nsnc23)c(C)c1 | inactive: 88%
COc1ccc(-c2[nH]ncc2C(=O)NCc2ccccc2OC)cc1 | inactive: 79%
Cc1ccc(Nc2cc(-c3ccccc3)nc(C)n2)cc1 | active: 24%
Cc1cccc2cc(C(c3nnnn3Cc3ccccc3)N3CCN(C(=O)c4ccco4)CC3)c(=O)[nH]c12 (stereo unspecified) | inactive: 105%
CC(=O)Nc1ccc(S(=O)(=O)Nc2ccc3c(c2)n(C)c(=O)n3C)c(C)c1 | inactive: 89%
Cc1cc(C)n(-c2nc3cc(Cl)c(Cl)cc3nc2Nc2c(C)cccc2C)n1 | inactive: 89%
CC(=O)Nc1ccccc1-c1nc2ccccc2n(C(C)C(=O)c2ccc(C)c(C)c2)c1=O (stereo unspecified) | inactive: 104%
CCOc1ccc(CC(=O)NC2CC(=O)N(c3ccc4c(c3)OCCO4)C2)cc1 (stereo unspecified) | inactive: 85%
CCN(c1ccccc1)S(=O)(=O)c1nnc(NC(=O)COc2ccccc2F)s1 | active: 31%
Cc1cccc(CSCCNC(=O)CN(c2ccccc2)S(=O)(=O)N(C)C)c1 | inactive: 123%
CC1(C)Cc2ccccc2-c2nnc(SCC(N)=O)n21 | inactive: 76%
CCSC1=NC2(CCN(C(=O)NC3CCCCC3)CC2)N=C1c1ccc(C)c(C)c1 | inactive: 78%
Cc1ccc(NC(=O)[C@H](Cc2ccccc2)N2Cc3ccccc3C2=O)cc1 | inactive: 81%
Cc1noc(C)c1S(=O)(=O)NCCc1csc2nc(-c3ccc(F)cc3)nn12 | inactive: 87%

Compound | survival
CCOC(=O)c1c(NC(=O)c2cc3ccccc3c(=O)o2)sc2c1CCCC2 | active: 45%
CCCN(CCC)CCNC(=O)c1cc(Sc2ccc(Cl)cc2)nc2ccccc12 | inactive: 128%
COc1nc(Oc2ccc(=O)n(-c3ccccc3)n2)nc(N(C)C)n1 | inactive: 53%
CCc1cccc(NC(=O)c2ccc3c(=O)n4nc(Nc5ccccc5OC)sc4nc3c2)c1 | inactive: 74%
COc1ccc(C(=O)NN=C2CCCC2)cc1 | inactive: 91%
COc1ccc(OC)c(NC(=O)CCc2c(C)nc3c(-c4ccccc4)c(C)nn3c2C)c1 | inactive: 51%
Cc1ccc(Cn2c(=O)c3cccnc3n(Cc3ccc(F)cc3)c2=O)cc1 | inactive: 92%
CCc1c(C)nc2cc(-c3ccccc3)[nH]n2c1=O | inactive: 73%
Cc1cccc(Nc2nc3ccccc3n3c(N)nnc23)c1 | inactive: 95%
O=C(CSc1ncn[nH]1)NCCOc1ccccc1 | inactive: 76%
Cc1cc2n(n1)CCCN2C(=O)Nc1cccc(C)c1C | inactive: 73%
CCOC(=O)c1c(NC(=O)/C=C/c2ccc(OC)cc2)sc2c1CCC(C)C2 (stereo unspecified) | active: 23%
O=C(CSc1nc(=O)[nH]c2c1CCCC2)NCc1ccc(Cl)cc1 | inactive: 99%
Cc1ccccc1C(=O)Nc1sc2c(c1C(=O)N1CCC(C)CC1)CCCC2 | inactive: 58%
CCN(CCCNC(=O)c1cc2c(=O)[nH]c3ccc(C)cc3c2s1)Cc1ccccc1 | inactive: 56%
CCc1ccc2oc(C(=O)Nc3nc(-c4ccccc4)ns3)c(C)c2c1 | inactive: 53%
Cc1cccc(CNC(=O)c2ccc(Cn3c(SCc4ccccc4)nc4cccnc43)cc2)c1 | inactive: 92%
Cc1c(C(=O)N(C)C)sc2c1c(=O)n(-c1ccc(F)cc1)c(=O)n2CC(=O)N(C)c1ccccc1 | inactive: 73%
COc1ccccc1CNC(=O)CCC1N=C2c3ccccc3N=C(SCC(=O)NCCc3ccccc3)N2C1=O (stereo unspecified) | inactive: 131%
Cc1ccc(OC(C)C(=O)NCC2(N3CCOCC3)CCCCC2)cc1C (stereo unspecified) | inactive: 57%
Cc1cc2oc(C(=O)Nc3ccc(S(=O)(=O)Nc4onc(C)c4C)cc3)cc(=O)c2cc1C | inactive: 49%
Cc1ccc(C)c(NC(=O)Cn2c(=O)oc3cc(S(=O)(=O)NCc4ccccc4)ccc32)c1 | inactive: 74%
CCOc1ccc(-n2c(SC(C)C(=O)OC)nc3c([nH]c4ccccc43)c2=O)cc1 (stereo unspecified) | active: 0%

Compound | survival
CCOc1ccc(NC(=O)CN2CCN(CC(=O)Nc3ccc(OC)cc3)CC2)cc1 | inactive: 102%
O=C(NN=C1C2CC3CC(C2)CC1C3)c1ccncc1 | inactive: 97%
COc1ccccc1/C=C/c1nc(C#N)c(N2CCN(c3ccccc3)CC2)o1 | inactive: 94%
CN(C(=O)CSc1nc2ccc(NC(=O)COc3ccccc3Cl)cc2s1)c1ccccc1 | inactive: 59%
COc1cccc(CNC(=O)CCCn2c(=O)c3cccn3c3cccnc32)c1OC | inactive: 103%
CCCCn1nc(NC(=O)c2cccc(Cl)c2)c2cc3ccc(C)cc3nc21 | inactive: 69%
CC(=O)Nc1ccc(NS(=O)(=O)c2cc3c4c(c2)CC(=O)N4CCC3)cc1 | inactive: 118%
COc1cc(C(=O)NCCS(=O)(=O)N2CCN(c3ccccc3)CC2)cc(OC)c1OC | inactive: 92%
COc1ccc(-c2cc3nc(C)c(CCC(=O)N4CCN(c5cc(C)ccc5C)CC4)c(C)n3n2)c(OC)c1 | inactive: 69%
Cn1cc(S(=O)(=O)c2ccc(Cl)cc2)c(=O)c2cc(F)c(N3CCOCC3)cc21 | inactive: 77%
COC(=O)c1cccc(CN2C(=O)SC(Nc3ccc(Br)cc3)C2=O)c1 (stereo unspecified) | active: 23%
Cc1ccc(NC(=O)CSc2nc3ccc(NC(=O)c4ccco4)cc3s2)c(C)c1 | inactive: 63%
COc1ccc(-c2cc(C(F)(F)F)nc(NCCc3ccccc3)n2)cc1 | active: 1%
COC(=O)c1c(SCC(=O)Nc2cc(F)ccc2F)[nH]c2ccc(C)cc2c1=O | inactive: 116%
O=C(NCCc1ccccc1)c1cc2sccc2n1Cc1ccc(F)cc1 | inactive: 72%
Cc1c(-c2ccc(Cl)cc2)c(=O)oc2c(CN3CCOCC3)c(O)ccc12 | inactive: 82%
O=c1nc2cc3[nH]c4c(=O)c5ccccc5c4[nH]c3cc2n1 | inactive: 82%
CC(=O)Oc1ccc2oc(=O)sc2c1 | inactive: 79%
Cn1cc(CCC(=O)O)c2ccccc21 | inactive: 99%
CCCCOc1ccc(C(=O)Nc2onc3c2CCCC3)cc1 | active: 49%
COC(=O)C1CCN(C(c2ccccc2Cl)c2sc3nc(-c4ccco4)nn3c2O)CC1 (stereo unspecified) | inactive: 99%
CCOC(=O)CN1C(C(=O)c2ccccc2)=C(OC(=O)c2ccccc2)c2ccccc2S1(=O)=O | inactive: 56%
Cc1cc(C)cc(NC(=O)Nc2cccs2)c1 | active: 26%

Compound | survival
COCCNC(=O)CSc1nnc(NC(=O)Nc2ccc(C)cc2)s1 | inactive: 81%
CCc1ccc(-n2c(N3CCN(c4cccc(C)c4C)CC3)nc3ccccc3c2=O)cc1 | inactive: 84%
O=C(NC1CCCCC1)C(c1ccco1)N(C(=O)C1COc2ccccc2O1)c1cccc(F)c1 (stereo unspecified) | inactive: 74%
Cc1ccc(Nc2nc(N)nc(N)c2S(=O)(=O)c2ccccc2)cc1 | inactive: 66%
Cc1nc2ccn(Cc3cccnc3)c(=O)c2cc1C(=O)N1CCN(c2ccccc2)CC1 | inactive: 105%
CC(C)N1CC=C2C(C1)C(c1ccccc1Cl)C(C#N)=C(N)C2(C#N)C#N (stereo unspecified) | inactive: 95%
Cc1ccc(C)c(NC(=O)Cn2cnc3nc4c(cc3c2=O)CCCC4)c1 | inactive: 89%
COc1ccccc1N1CCN(C(=O)C2CCCN(S(=O)(=O)c3ccc4c(c3)oc(=O)n4C)C2)CC1 (stereo unspecified) | inactive: 83%
CCOC(=O)c1cccc(NC(=O)c2ccc3snnc3c2)c1 | inactive: 52%
Cc1ccc(NC(=O)CC2Sc3ccccc3NC2=O)c(Br)c1 (stereo unspecified) | inactive: 132%
O=C(NCCS(=O)(=O)N1CCN(c2cccc(Cl)c2)CC1)c1cc(=O)c2ccccc2o1 | inactive: 80%
CC(Cc1ccccc1)N=C1NS(=O)(=O)c2ccccc21 (stereo unspecified) | inactive: 81%
CCOC(=O)c1cc(NC(=O)c2ccc(OC)cc2)c(=O)n2c1oc1ccc(Cl)cc12 | active: 46%
CCn1c(CNC(=O)C23CC4CC(CC(C4)C2)C3)nnc1SCC(=O)Nc1ccc(F)cc1 | inactive: 71%
CC1Cc2ccccc2N1C(=O)CSc1nnc(-c2cccc(Cl)c2)o1 (stereo unspecified) | active: 34%
CCOc1ccc(CCNC(=O)c2cc3c(=O)n(C)c4ccccc4c3n2C)cc1 | inactive: 71%
O=C(CCc1ccccc1)NCc1ccc2c(c1)CCN2C(=O)c1ccc(Cl)cc1 | inactive: 77%
Cc1ccc(-n2c(=O)c3cccnc3n2CC(=O)NCc2ccc(F)cc2)cc1C | inactive: 43%
O=C(c1ccccc1)N1CC(=O)N2CCc3ccccc3C2C1 (stereo unspecified) | inactive: 96%
Cc1ccc(CNC(=O)CN2CCCN(Cc3ccc(F)cc3)S2(=O)=O)cc1 | inactive: 67%
CCN(CC)S(=O)(=O)c1ccc2c(c1)N(CC(=O)Nc1c(C)cc(C)cc1C)C(=O)C1CCCN21 (stereo unspecified) | inactive: 64%
Cc1cc(C)c(/C=C/c2onc(C)c2S(=O)(=O)N2CCC(C(=O)Nc3ccc(Cl)c(C(F)(F)F)c3)CC2)c(C)c1 | inactive: 67%
